{"source": "PubChem BioAssay AID1347417", "about": "(National Center for Advancing Translational Sciences (NCATS), 2020)", "note": "Screen size: about 120,000 compounds; about 5,300 (4.4%) were called active. Inconclusive results, whose numbers are uncertain, are shown with a selection of clear calls. The call rests on the fitted dose curve; in most records, active means well fitted inhibition curve with a large enough effect; inconclusive means small, poorly fitted or top-dose-only effect; inactive means no such curve, though single readings can be large or run the other way. Potencies beside an inconclusive call are fits to weak or partial responses and may not hold up. Potency means the concentration at half of the fitted maximal effect; tags describe the fitted curve by direction and shape.", "data": [{"assay": "qHTS Primary assay for Inhibitors of Plasmodium falciparum Dd2 growth in vitro; further: nearly all actives have a fitted effect of over 65% in size;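 on activity, negative = inhibition: plate controls were DMSO vehicle for no effect and reference drug for full effect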", "settings": "P. falciparum Dd2 growth, SYBR Green, 72 h; activity, negative = inhibition: at 28.9 µM (top of the series) unless noted; series mostly up to 28.9 µM", "how_it_was_run": "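Infected erythrocytes (Dd2, 0.3% parasitemia, 2.5% hematocrit final) are added to compound in RPMI-1640/Albumax II medium, grown 72 h at 37C in low oxygen, then lysed with saponin/Triton-X containing SYBR Green and read by fluorescence.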", "values": [{"compound": "O=C(Nc1ccccc1)N[C@H]1[C@H](O)[C@@H](Sc2ccccc2)[C@@H]2OC[C@H]1O2", "Potency": "inactive"}, {"compound": "Cn1ncc(N2CCC(C(=O)NCC3CCN(Cc4cccc(F)c4)CC3)C2)cc1=O", "note": "(centres undefined)", "Potency": "inconclusive: 17.8 µM [inhibitor, single point]"}, {"compound": "CCOc1ccccc1NC(=O)N1CCCCCCNC(=O)CC1c1ccccc1", "note": "(centres undefined)", "Potency": "inactive"}, {"compound": "O=C1CO[C@H]2CN(Cc3ccncc3)C[C@H]2N1Cc1ccccc1", "Potency": "inactive"}, {"compound": "CCc1nc(-c2ccc(OC3CCN(S(=O)(=O)c4cn(C)cn4)C3)cc2)no1", "note": "(centres undefined)", "activity, negative = inhibition": "inactive: -1.84% [at 5.79 µM]"}, {"compound": "COc1cccc(C(=O)N2CCN(c3cc(C(F)(F)F)ncn3)CC2)c1OC", "Potency": "inactive"}, {"compound": "Cn1cccc1C(=O)N1C[C@@H](COCC2CC2)[C@H](c2ccccn2)C1", "Potency": "inconclusive: 17.8 µM [inhibitor, single point]"}, {"compound": "Cc1cccc(OC(=O)c2cc(-c3ccc4c(c3)OCCO4)on2)c1", "Potency": "inactive"}, {"compound": "COc1cccc(C(=O)N2C3CCCC2CC(=O)C3)c1", "Potency": "inactive"}, {"compound": "Cc1ccccc1-n1c(/C=C/c2c(C)n(C)c3ccccc23)nc2ccccc2c1=O", "Potency": "active: 2.82 µM"}, {"compound": "Cc1cc(C(=O)NCC2Cn3cccc3CN2C)nn1C", "note": "(centres undefined)", "Potency": "inconclusive: 17.8 µM [inhibitor, single point]"}, {"compound": "O=C(c1ccc(Cl)cc1)N1CCN(C(=O)c2nnn3c2COC(c2ccccc2)C3)CC1", "note": "(centres undefined)", "Potency": "inconclusive: 0.631 µM [inhibitor, full curve, poor fit]"}, {"compound": "O=C(NCc1ccco1)N1CCc2c(nc(-c3ccc(F)cc3)[nH]c2=O)C1", "Potency": "inactive"}, {"compound": "COc1ccc(S(=O)(=O)N2CC[C@H](NC(=O)Cc3cccs3)C[C@H]2C(=O)N[C@@H](CC2CCCCC2)C(N)=O)cc1", "Potency": "inconclusive: 5.62 µM [inhibitor, partial curve]"}, {"compound": "CNc1cc(C(=O)N2CCN(CC(=O)O)CC(O)C2)ccn1", "note": "(centres undefined)", "Potency": "inactive"}, {"compound": "COc1ccc(N2CCN(C(=O)c3ccc4c(c3)N(Cc3ccc(F)cc3)C(=O)c3ccccc3S4=O)CC2)cc1", "note": "(centres undefined)", "Potency": "inconclusive: 11.2 µM [inhibitor, partial curve, poor fit]"}, {"compound": "COc1ccc(S(=O)(=O)c2c(Nc3ccc(F)cc3)sc(C(=O)c3ccc4c(c3)OCO4)c2N)cc1", "Potency": "inconclusive: 11.2 µM [inhibitor, partial curve, poor fit]"}, {"compound": "Cc1ccc(-c2csc(=Nc3ccccc3)n2Cc2ccc3c(c2)OCO3)cc1C", "Potency": "inconclusive: 11.2 µM [inhibitor, single point]"}, {"compound": "COc1ccc(-c2ccc3c(c2)C(=O)N2CCN(C(=O)COCC(=O)O)C[C@@H]2C(=O)N3)c(OC)c1", "Potency": "inactive"}, {"compound": "CCCS(=O)(=O)N1CCC(Oc2nccnc2N2CCOCC2)C1", "note": "(centres undefined)", "Potency": "inconclusive: 1.78 µM [inhibitor, single point]"}, {"compound": "Cn1c(CNC(=O)CN2CC3CC(C2)[C@H]2CCCC(=O)N2C3)nc2ccccc21", "note": "(some centres undefined)", "Potency": "inactive"}, {"compound": "COCCN1CCNc2nc(CNc3ccon3)n(Cc3ccccc3)c2C1=O", "Potency": "active: 11.2 µM"}, {"compound": "CCCOC(=O)c1c(NC(=O)C2c3ccccc3Oc3ccccc32)sc2c1CCC(C)C2", "note": "(centres undefined)", "Potency": "inconclusive: 17.8 µM [inhibitor, single point]"}, {"compound": "O=C(Nc1ccccc1F)c1ccc2c(c1)n(Cc1ccccc1)c(=O)c1ccnn12", "Potency": "inconclusive: 2.82 µM [inhibitor, partial curve, poor fit]"}, {"compound": "COc1ccc(-c2cn3c(n2)sc2cc(C(=O)NCCCN4CCCCCC4)ccc23)cc1", "Potency": "active: 8.91 µM"}, {"compound": "O=C(CC1CCCCC1)NCC(=O)N1CCCCCCNC(=O)CC1c1ccccc1", "note": "(centres undefined)", "Potency": "inconclusive: 12.6 µM [inhibitor, single point]"}, {"compound": "COCCc1nncn1C1CCN(S(=O)(=O)c2ccc(F)cc2F)CC1", "Potency": "inactive"}, {"compound": "O=C(c1ccc2nc[nH]c2c1)N1CCCN(c2cc(-c3ccc(Br)cc3)[nH]n2)CC1", "Potency": "inconclusive: 1.26 µM [inhibitor, partial curve, poor fit]"}, {"compound": "COc1ccccc1NC(=O)c1c(NCc2ccc(C)o2)sc2c1CCC(C)C2", "note": "(centres undefined)", "Potency": "inconclusive: 17.8 µM [inhibitor, single point]"}, {"compound": "COc1cc2c(cc1CN1CCCC(CO)(CC=C(C)C)C1)OCCO2", "note": "(centres undefined)", "Potency": "active: 7.94 µM"}, {"compound": "O=C1CC[C@]2(C(=O)N3CCCCC3)CCCC[C@H]2N1CCc1ccccc1", "Potency": "inactive"}, {"compound": "COc1ccc(Cl)cc1C(=O)NC1CCCN(c2cc(-c3ccc(F)cc3)[nH]n2)C1", "note": "(centres undefined)", "Potency": "inconclusive: 1.26 µM [inhibitor, partial curve, poor fit]"}, {"compound": "COc1cccc(NC(=O)N[C@H]2CCN(C(=O)CSC)[C@@H]2C(=O)N[C@@H](CCCNC(=O)CSC)C(N)=O)c1", "Potency": "inactive"}, {"compound": "COc1ccc(CCNC(=O)CCCn2c(=O)c3ccccc3n(Cc3ccc(F)cc3Cl)c2=O)cc1OC", "Potency": "inconclusive: 1.58 µM [inhibitor, single point]"}, {"compound": "O=C(c1ccc2c(c1)OCCO2)N(Cc1cccnc1)c1nc2c(F)cccc2s1", "Potency": "inconclusive: 10 µM [inhibitor, single point]"}, {"compound": "Cc1cccc(-c2noc(CN(C(=O)c3ccccc3Cl)C(C)C)n2)c1", "Potency": "inconclusive: 8.91 µM [inhibitor, single point]"}, {"compound": "Cc1ccsc1C(=O)C1CCCN(Cc2ccc(C#CC(C)(C)O)cc2)C1", "note": "(centres undefined)", "Potency": "inconclusive: 17.8 µM [inhibitor, single point]"}, {"compound": "CCOCCCNC(=O)N1CC(c2nnc(-c3ccncc3)o2)C2(CCOCC2)C1", "note": "(centres undefined)", "Potency": "inactive"}, {"compound": "COCCN1C(=O)CS(=O)C12CCN(C(=O)NCc1ccc(OC)cc1)CC2", "note": "(centres undefined)", "Potency": "inconclusive: 11.2 µM [inhibitor, single point]"}, {"compound": "COc1ccc(-c2cc(N3CCCC(NC(=O)c4cccc(C(F)(F)F)c4)C3)n[nH]2)cc1", "note": "(centres undefined)", "Potency": "active: 1.26 µM"}, {"compound": "CCCCc1nn(CC(=O)N2CCCC2c2c(C)noc2C)c(=O)n1CC", "note": "(centres undefined)", "Potency": "inactive"}, {"compound": "CC1CCCN(Cc2cn3c(-c4cccc(Br)c4)nnc3s2)C1", "note": "(centres undefined)", "Potency": "inactive"}, {"compound": "O=C(NCCc1ccc(Cl)cc1)c1ccc(Cn2c(=O)c3cccn3c3cccnc32)cc1", "Potency": "inconclusive: 8.91 µM [inhibitor, single point]"}, {"compound": "O=C(CSC1=Nc2ccccc2N=C(c2ccc(F)cc2)C1)NCc1ccccc1", "Potency": "inconclusive: 17.8 µM [inhibitor, single point]"}]}]}
